According to the supplement of paper PMC4996465:
Viability of KB3-1 and Nalm-6 cells after 48 h of drug alone (CellTiter-Glo), 11 doses over about 4.5 log units. % of DMSO wells, lower = more cell loss; AC50 from the fitted curve, lower = more potent. No active / inactive call. Nalm-6 was screened in two runs. AC50 is listed only for well-fitted inhibitory curves. KB3-1 is a HeLa-derived carcinoma line, Nalm-6 a B-cell precursor leukaemia line.

Assays:
[1] = test system: Nalm-6; assay: log AC50 of viability decrease (48 h) (log10 M); higher = less potent
Protocol: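 Eleven-dose screen of the NCATS MIPE 3 library on cells without co-treatment; CellTiter-Glo after 48 h. AC50 from the curve fit; only inhibitory curves of the better fit classes are listed.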

[2] = test system: Nalm-6; assay: viability (% of DMSO control); higher = more viable cells
Protocol: (§1)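 Eleven-dose screen of the NCATS MIPE 3 library on cells without co-treatment; CellTiter-Glo after 48 h, as % of DMSO wells.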

[3] = test system: KB3-1; assay: as above
Protocol: as §1

Structure (SMILES) | log AC50 of viability decrease ([1]; run: 1) | log AC50 of viability decrease ([1]; run: 2) | viability ([2]; run: 1, 0.00078 µM) [%] | viability ([2]; run: 1, 0.00234 µM) [%] | viability ([2]; run: 1, 0.00702 µM) [%] | viability ([2]; run: 1, 0.0211 µM) [%] | viability ([2]; run: 1, 0.0632 µM) [%] | viability ([2]; run: 1, 0.19 µM) [%] | viability ([2]; run: 1, 0.569 µM) [%] | viability ([2]; run: 1, 1.71 µM) [%] | viability ([2]; run: 1, 5.12 µM) [%] | viability ([2]; run: 1, 15.4 µM) [%] | viability ([2]; run: 1, 46.1 µM) [%] | viability ([2]; run: 2, 0.00078 µM) [%] | viability ([2]; run: 2, 0.00234 µM) [%] | viability ([2]; run: 2, 0.00702 µM) [%] | viability ([2]; run: 2, 0.0211 µM) [%] | viability ([2]; run: 2, 0.0632 µM) [%] | viability ([2]; run: 2, 0.19 µM) [%] | viability ([2]; run: 2, 0.569 µM) [%] | viability ([2]; run: 2, 1.71 µM) [%] | viability ([2]; run: 2, 5.12 µM) [%] | viability ([2]; run: 2, 15.4 µM) [%] | viability ([2]; run: 2, 46.1 µM) [%] | viability ([3]; 0.00078 µM) [%] | viability ([3]; 0.00234 µM) [%] | viability ([3]; 0.00702 µM) [%] | viability ([3]; 0.0211 µM) [%] | viability ([3]; 0.0632 µM) [%] | viability ([3]; 0.19 µM) [%] | viability ([3]; 0.569 µM) [%] | viability ([3]; 1.71 µM) [%] | viability ([3]; 5.12 µM) [%] | viability ([3]; 15.4 µM) [%] | viability ([3]; 46.1 µM) [%]
CCOc1cc(/C=C2/C(=O)N(c3ccccc3)N=C2C)cc(Cl)c1OCC(=O)OC | -4.58 | -4.73 | 118 | 116 | 115 | 127 | 117 | 116 | 114 | 117 | 106 | 104 | 15 | 108 | 109 | 108 | 111 | 106 | 114 | 109 | 111 | 102 | 92.8 | 55.3 | 100 | 98.8 | 101 | 111 | 107 | 105 | 103 | 101 | 102 | 100 | 107
CCn1c(-c2nonc2N)nc2c(C#CC(C)(C)O)ncc(OC[C@H]3CCCNC3)c21 | -5.38 | -4.98 | 105 | 109 | 103 | 95.7 | 74.8 | 67.2 | 64.5 | 58.3 | 58.7 | 53.5 | 0.607 | 104 | 108 | 106 | 94.5 | 84.3 | 66.4 | 66.6 | 62.1 | 59.3 | 59.9 | 0.314 | 102 | 104 | 101 | 97.5 | 98.6 | 93.5 | 98.3 | 94.2 | 85.9 | 87 | 15.7
CNC(=O)C1=CC=C(C)C(=C1)N2C(=C/C(=C(/Br)C2=O)OCC3=C(F)C=C(F)C=C3)\C | -4.78 | – | 110 | 111 | 103 | 120 | 114 | 107 | 113 | 99.7 | 82.9 | 83.8 | 54.8 | 107 | 106 | 109 | 106 | 110 | 110 | 109 | 107 | 102 | 99.9 | 67.3 | 96.3 | 98.1 | 98.1 | 101 | 101 | 102 | 100 | 99 | 96.2 | 93.3 | 69.4
COC1(C[S+]([O-])c2ccccc2)CCN(CCc2c[nH]c3ccc(F)cc23)CC1 (configuration not stated) | -4.78 | – | 103 | 99.1 | 108 | 111 | 106 | 113 | 97.9 | 104 | 96.2 | 90.6 | 73.9 | 111 | 111 | 104 | 113 | 111 | 103 | 99.8 | 105 | 104 | 95.8 | 80.6 | 100 | 96.2 | 94.6 | 95.8 | 94.8 | 92.4 | 91.9 | 89.5 | 89.2 | 90.5 | 82.8
C[S+]([O-])c1ccc(-c2nc(-c3ccc(F)cc3)c(-c3ccncc3)[nH]2)cc1 (configuration not stated) | -4.68 | – | 121 | 116 | 119 | 124 | 110 | 115 | 111 | 115 | 103 | 103 | 78.2 | 113 | 111 | 107 | 108 | 102 | 112 | 115 | 115 | 106 | 109 | 94.7 | 102 | 99.2 | 96.4 | 99.6 | 102 | 93.5 | 102 | 101 | 104 | 91.9 | 85.1
NC1=C(Cl)C(=CC=N1)OC2=C(F)C=C(NC(=O)\C3=C\N\C=C(C3=O)\C4=CC=C(F)C=C4)C=C2 | -4.63 | -4.63 | 121 | 112 | 116 | 111 | 105 | 102 | 103 | 104 | 91.2 | 82.4 | 5.21 | 106 | 98.1 | 104 | 106 | 103 | 104 | 102 | 107 | 96.1 | 85.5 | 2.7 | 103 | 103 | 95.9 | 96.8 | 96.8 | 97 | 98.6 | 93.2 | 93 | 93.1 | 16.6
N#Cc1ccc(COC[C@H]2O[C@@H](n3c(NCc4ccc(Cl)c(Cl)c4)nc4c(N)ncnc43)[C@H](O)[C@@H]2O)cc1 | -4.78 | -4.63 | 106 | 111 | 102 | 105 | 111 | 98.2 | 92.8 | 81.7 | 67.7 | 66 | 1.16 | 106 | 107 | 107 | 103 | 106 | 107 | 105 | 109 | 88.8 | 86.9 | 2.16 | 101 | 102 | 102 | 103 | 102 | 98.9 | 105 | 101 | 99.8 | 95.4 | 14
